Reference: PubChem BioAssay AID1345082 (National Center for Advancing Translational Sciences (NCATS), 2018)
The whole screen tested about 94,000 compounds, of which about 4,000 (4.3%) were called active. The inconclusive results got no clear call from the source; some entries with a clear call stand among them for comparison. The call rests on the fitted dose curve; in most records, active means well fitted inhibition curve with a large enough effect; inconclusive means small, poorly fitted or top-dose-only effect; inactive means no such curve, though single readings can be large or run the other way. Potencies of inconclusive entries are doubtful fits and often do not repeat.

Test: Cytotoxic Profiling in NIH 3T3 Cell Line of Diverse Libraries Using Quantitative High-Throughput Screening; further: nearly all actives have a fitted effect of over 55% in size
Settings: NIH 3T3 viability, CellTiter-Glo ATP luminescence, 48-72 h; activity change, negative = cytotoxicity: at 96.7 µM (top of the series) unless noted; series mostly up to 96.7 µM
Summary of the method: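 First NIH 3T3 cells are plated at 400 cells/well; next compound is pinned in; then plates incubate 48 or 72 hr at 37 °C; finally CellTiter-Glo is added and luminescence read after 10 min.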
On the % scale 0 is the no-effect control and ±100 the full control effect; potency means the concentration at half of the fitted maximal effect; tags describe the fitted curve by direction and shape.

Structure (SMILES) | Potency | activity change, negative = cytotoxicity | outcome
O=C(NCCc1ccccc1)c1ccc2nnc(Cc3ccc(Cl)cc3)n2c1 | inconclusive: 50.1 µM [inhibitor, partial curve, poor fit] |  | 
COc1ccc(C2(C(=O)NC3CCCc4c3[nH]c3ccccc43)CCOCC2)cc1 (stereo unspecified) | active: 39.8 µM |  | 
O=C1CC(c2ccccc2)N(C(=O)C2CC2)CCCN(C(=O)Nc2ccccc2F)CCN1 (stereo unspecified) |  | inactive: -16.5% | 
COc1cccc(-c2cc(C3CCN(C(=O)Nc4cccc(Cl)c4C)CC3)[nH]n2)c1 | inconclusive: 44.7 µM [inhibitor, partial curve, poor fit] |  | 
Cc1cnc(C(=O)N[C@@H]2CCC[C@@H]2C(=O)NCc2ccc(F)cc2)cn1 |  | inactive: 3.69% | 
O=C(C1CCCC1)N1CC2(CCN(C3COC3)CC2)Cc2ccccc21 | inconclusive: 56.2 µM [inhibitor, partial curve, poor fit] |  | 
O=C(NC1CCN(Cc2cccc(-c3ccc(F)cc3F)c2)CC1)c1cccc(Cl)c1 | active: 15.8 µM |  | 
CC(=O)N1CCC(NC[C@@H]2C=C(C)[C@H](Cc3nc4ccc(C)cc4[nH]3)C[C@H]2C(C)C)CC1 | inconclusive: 89.1 µM [inhibitor, single point] |  | 
O=C(C1CCCC1)N1CCN(CCCn2nc3n(c2=O)CCCC3)CC1 |  | inactive: -21.1% | 
Cc1scc(C(=O)N2CCCC3(CCOC3)C2)c1-c1ccccc1 (stereo unspecified) |  | inactive: -24.4% | 
Cc1ccccc1CNC(=O)c1ccc(CN2C(=O)NC3(CCOCC3)C2=O)cc1 |  |  | inactive
COc1cccc(CN2C(=O)OC3(CCN(C(=O)Cc4cccc(F)c4)CC3)C2(C)c2cccnc2)c1 (stereo unspecified) | inconclusive: 2.51 µM [inhibitor, full curve, poor fit] |  | 
Cn1c(=O)n([C@H]2CCCN(C(=O)CCc3nc(-c4ccccc4)no3)C2)c2ncccc21 |  | inactive: -30.7% | 
O=C(c1ccc2oc(-c3ccncc3Cl)nc2c1)N1CCOCC1 |  | inactive: -30% [at 138 µM] | 
O=C(NC1CCCC1)N1c2ccccc2CC1c1nc(C2CC2)no1 (stereo unspecified) | inconclusive: 50.1 µM [inhibitor, partial curve, poor fit] |  | 
O=C1[C@@H]2C[C@@H](O)CN2C2(CN(Cc3cccc(OC(F)(F)F)c3)C2)C(=O)N1Cc1cccc(Cl)c1 | inconclusive: 79.4 µM [inhibitor, partial curve, poor fit] |  | 
C#CCNC(=O)c1cn2cc(-c3ccc(C(F)(F)F)cc3)sc2n1 | inconclusive: 100 µM [inhibitor, partial curve, poor fit] |  | 
CN(Cc1cccnc1)c1ccc2ncc(Nc3ccc(C(F)(F)F)cc3)n2n1 | inconclusive: 31.6 µM [inhibitor, partial curve, poor fit] |  | 
Fc1ccc(-c2cccc(CN3CCOCC3)c2)c(Cl)c1 | inconclusive: 63.1 µM [inhibitor, partial curve, poor fit] |  | 
CCOc1ccc(Cl)cc1CN(C)c1cc(C2CC(O)C2)nc(N)n1 (stereo unspecified) | active: 31.6 µM |  | 
C#CCOc1ccccc1-c1c(-c2ccccc2)ncn1CCCO | inconclusive: 50.1 µM [inhibitor, partial curve, poor fit] |  | 
COc1cccc(-c2nc3cc4c(cc3cc2CN2CCOCC2)OCO4)c1OC |  | inactive: -11.9% | 

Structure (SMILES) | Potency | activity change, negative = cytotoxicity | outcome
COc1ccc2c3c1CN(Cc1cccc(NC(C)=O)c1)CC3=CC(C)(C)CO2 | inconclusive: 70.8 µM [inhibitor, single point] |  | 
Cc1cccc(-c2noc([C@@H]3Cc4nc[nH]c4CN3C(=O)NC3CCCCC3)n2)c1 | active: 70.8 µM |  | 
COCC1CN(C)CC12CCN(S(=O)(=O)c1ccc3c(c1)OCCO3)CC2 (stereo unspecified) | inconclusive: 50.1 µM [inhibitor, partial curve, poor fit] |  | 
C#CCN(C)CC[C@@H]1CC[C@H](O)[C@@H](C(=O)NCc2ccc(OC)cc2)O1 |  | inactive: 3.05% [at 138 µM] | 
COC(=O)CNC(=O)C1CCCN1Cc1ccc(-c2cncnc2)cc1 (stereo unspecified) | inconclusive: 56.2 µM [inhibitor, partial curve, poor fit] |  | 
Cc1ccc(C(=O)NC2CCN(c3cc(-c4ccccc4)[nH]n3)C2)cc1C (stereo unspecified) | inconclusive: 56.2 µM [inhibitor, single point] |  | 
Cc1ccccc1NC(=O)N1c2ccccc2CC1c1noc(C2CCOCC2)n1 (stereo unspecified) |  | inactive: -19.1% | 
OCc1ccc(-c2cc3c(ccn3Cc3cccnc3)c(C3=CCOCC3)n2)cc1 | inconclusive: 20 µM [inhibitor, full curve, poor fit] |  | 
COc1ccc(CC(=O)N2CCN(c3cc(-c4ccc(OC)cc4)[nH]n3)CC2)cc1 | inconclusive: 31.6 µM [inhibitor, full curve] |  | 
COCCNC(=O)C1CCCN(c2nc3ncccc3o2)C1 (stereo unspecified) |  | inactive: -9.56% [at 138 µM] | 
COc1cc(=O)n2c(c1C(=O)NCc1ccccc1Cl)CCCC2 |  | inactive: -31.8% | 
COc1ccc(-c2cc(-c3cnc4[nH]ccc4c3)cn3cncc23)cc1 | active: 79.4 µM |  | 
Fc1ccc(-c2cnc([C@@H]3COCCN3Cc3cnc4ccccc4c3)[nH]2)c(F)c1 | inconclusive: 79.4 µM [inhibitor, partial curve, poor fit] |  | 
Cn1cc(CN2CCCCCNC(=O)[C@@H]3CCC[C@@H]32)c2ccccc21 | inconclusive: 70.8 µM [inhibitor, single point] |  | 
COc1ccc(CNC(=O)c2cc(-c3cccc(OC)c3)nc3c2cnn3C)cc1 | inconclusive: 39.8 µM [inhibitor, partial curve] |  | 
Cc1cccc(CN2CCNc3cc(Nc4cccnc4)ncc3C2)c1 | inconclusive: 12.6 µM [inhibitor, full curve, poor fit] |  | 
COc1ccc(C(=O)NC2CCCN(c3ccnc4ccnn34)C2)cc1 (stereo unspecified) | inconclusive: 20 µM [inhibitor, full curve] |  | 
COCC1CN(C)CC12CCN(S(=O)(=O)c1ccc(F)c(Cl)c1)CC2 (stereo unspecified) | inconclusive: 50.1 µM [inhibitor, partial curve, poor fit] |  | 
Cc1ccc(-c2cccc(CN3CCCC3C(=O)N3CCCCC3)c2)cc1Cl (stereo unspecified) | active: 31.6 µM |  | 
COc1ncccc1-c1cc2c(ccn2CC2CCN([S+](C)(=O)[O-])CC2)c(N2CCOCC2)n1 | inconclusive: 50.1 µM [inhibitor, partial curve, poor fit] |  | 
CCC(C)NC(=O)C1CC(c2ccc(F)c(C)c2)CN(C(=O)c2ccccc2)C1 (stereo unspecified) | inconclusive: 56.2 µM [inhibitor, partial curve, poor fit] |  | 
Cc1noc(C)c1C(=O)N1CCN(c2ccc3nnc(C4CC4)n3n2)CC1 | inactive |  | 

Structure (SMILES) | Potency | activity change, negative = cytotoxicity | outcome
COc1cccc([S+](=O)([O-])N2CCC(C(=O)N3CCC(N4Cc5cccn5C4=O)CC3)CC2)c1 | inconclusive: 50.1 µM [inhibitor, partial curve, poor fit] |  | 
O=C(NCC1COc2ncncc2C(=O)N1Cc1ccccc1)c1ccn[nH]1 (stereo unspecified) | inconclusive: 112 µM [inhibitor, single point] |  | 
COc1cc(CN2CCCC(COc3ccccc3C(=O)NC(C)C)C2)ccc1O (stereo unspecified) |  | inactive: -27.9% | 
Cc1cccc(NC(=O)Cn2ccn3nc(-c4ccccc4)c(CO)c3c2=O)c1C | inconclusive: 70.8 µM [inhibitor, single point] |  | 
Cc1ccc(CC2CCOC3(CCN(C(=O)c4cccc(C#N)c4)CC3)C2)cc1 (stereo unspecified) | inconclusive: 50.1 µM [inhibitor, partial curve, poor fit] |  | 
CCNC(=O)OC1CCN(C(=O)c2ccc(OC)c(OC)c2)CC(=O)N(C)c2ccccc21 (stereo unspecified) | inconclusive: 56.2 µM [inhibitor, partial curve, poor fit] |  | 
COc1cccc(CC(=O)N2CCC3(CC2)OC(=O)N(Cc2ccccc2F)C3(C)c2ccccc2)c1 (stereo unspecified) | active: 25.1 µM |  | 
COc1ccccc1CNC(=O)C1CCCN1Cc1ccc(-c2cc(C)cc(C)c2)cc1 (stereo unspecified) | active: 39.8 µM |  | 
CCOC(=O)C1CCCN(C(=O)C2CC(c3ccccc3)CN(C(=O)c3cccc(F)c3)C2)C1 (stereo unspecified) | inconclusive: 70.8 µM [inhibitor, single point] |  | 
COc1ccc2[nH]c3c(c2c1)CCNC31CCN(C2CCCC2)CC1 | inconclusive: 39.8 µM [inhibitor, partial curve, poor fit] |  | 
CCOc1ccc2c(n1)CCN(C(=O)Cc1ccccc1)C2 |  | inactive: -7.23% | 
COCCN1C(=O)N(CCCc2cccnc2)C(=O)C12CCN(C/C=C/c1ccc(OC)cc1)CC2 | inconclusive: 50.1 µM [inhibitor, partial curve, poor fit] |  | 
O=C(NCCCn1ccnc1)c1nc(-c2ccccc2)cc2[nH]ccc12 | inconclusive: 79.4 µM [inhibitor, partial curve, poor fit] |  | 
Cc1cc(C(=O)NCC2CCCCC(=O)N2)n(C)n1 (stereo unspecified) |  | inactive: -16.4% | 
Cc1ccc(C(=O)N2CCC3(CC2)CC(N(Cc2ccc(F)cc2)C2CC2)CCO3)cn1 (stereo unspecified) | inconclusive: 50.1 µM [inhibitor, partial curve, poor fit] |  | 
COc1ccc(CN2CCC23Cc2ccccc2NC3=O)cc1 (stereo unspecified) | inconclusive: 28.2 µM [inhibitor, partial curve, poor fit] |  | 
CCO[C@@H]1COCC[C@H]1NC(=O)CN1C(=O)COc2ccc(C)cc21 |  | inactive: -7.83% | 
CCOCC(=O)N1CCCCCCNC(=O)[C@@H]2C[C@@H](c3nc(-c4cccnc4)no3)C[C@@H]21 |  | inactive: -2.48% | 
FC(F)(F)Oc1ccccc1Cn1ccnc1-c1cc2n(n1)CCNC2 | inconclusive: 89.1 µM [inhibitor, single point] |  | 
COc1ccc(F)cc1S(=O)(=O)N1CCC(CC(=O)NCc2ccccc2)C1 (stereo unspecified) |  | inactive: -9.7% | 
CCS(=O)(=O)N1CCC(N2CCCC(C(=O)NCCc3ccccc3)C2)CC1 (stereo unspecified) |  | inactive: -2% | 
COc1cc(NC(=O)c2cc3n(n2)CC(c2ccc(Br)cc2)OC3)cc(OC)c1OC (stereo unspecified) | inconclusive: 50.1 µM [inhibitor, partial curve, poor fit] |  | 
